Measurements taken from the supplement of paper PMC11369174, “Proteome-scale characterisation of motif-based interactome rewiring by disease mutations” (Molecular Systems Biology, 2024).
Some of the results follow. Read counts after selection give these values, which scatter widely.

Target: T1, EPS15_EH__P42566_121_215
T1 chain: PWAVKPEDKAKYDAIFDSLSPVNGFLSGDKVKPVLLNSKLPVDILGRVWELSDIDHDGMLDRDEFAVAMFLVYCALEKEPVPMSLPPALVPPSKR
Assay: mean normalised NGS count of phage-displayed peptide after selection on bait (% of reads); baits are purified protein domains named by gene / domain / UniProt id / residues; peptides come from disordered regions of human proteins; higher = stronger enrichment / binding
Conditions: replicate selections in which the peptide was seen: 3

Binder	mean normalised NGS count
RAYLQSITPQGYSDSE [ZEB2 1110-1125 wt]	0.0629
KLEHSNNPFNVYIESD [KCNE1 70-85 mut P15382.D76N]	0.358
GTPTSEQNPFLFQEGK [ANK2 3092-3107 wt]	0.13

Same assay, conditions: replicate selections in which the peptide was seen: 2

Binder	mean normalised NGS count
NFDNPIYQKTTEDEVH [LDLR 822-837 mut P01130.V827I]	0.00756

Target: EIF4E_eIF4E__P06730_1_217, P06730
Assay: as above
Conditions: replicate selections in which the peptide was seen: 3

Sequence of EIF4E_eIF4E__P06730_1_217, P06730 (P06730 whole entry): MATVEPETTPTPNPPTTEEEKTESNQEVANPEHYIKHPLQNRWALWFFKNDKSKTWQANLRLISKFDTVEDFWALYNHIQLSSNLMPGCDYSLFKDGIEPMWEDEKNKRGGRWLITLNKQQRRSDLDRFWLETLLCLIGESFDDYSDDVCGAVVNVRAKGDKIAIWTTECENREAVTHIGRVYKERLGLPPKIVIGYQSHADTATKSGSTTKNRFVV

Binder	mean normalised NGS count
TPALRTPSEYARPHVM [RERE 1250-1265 mut Q9P2R6.L1256P]	0.259
LIRTTFTSAQLKELER [PHOX2A 100-115 mut Q99453.R100L]	0.0687
TPALRTPSEYARPHVM [ATN1 1250-1265 mut Q9P2R6.L1256P]	0.259

Target: T2, EPHB2_Pkinase__P29323_604_898
T2 chain: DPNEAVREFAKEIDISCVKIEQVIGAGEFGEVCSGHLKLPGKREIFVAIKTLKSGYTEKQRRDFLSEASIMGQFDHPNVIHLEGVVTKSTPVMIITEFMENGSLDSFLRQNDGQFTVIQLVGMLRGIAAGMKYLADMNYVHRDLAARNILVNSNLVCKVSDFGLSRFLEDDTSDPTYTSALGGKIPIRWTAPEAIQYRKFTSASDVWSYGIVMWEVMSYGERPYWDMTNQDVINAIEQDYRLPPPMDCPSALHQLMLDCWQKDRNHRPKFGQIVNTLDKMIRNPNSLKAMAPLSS
Assay: as above
Conditions: replicate selections in which the peptide was seen: 2

Binder	mean normalised NGS count
HLAALLESGLSKEALI [HNF1A 12-27 mut P20823.L12H]	3.78
SLAAIEKRMAEKQARS [SCN5A 20-35 mut Q14524.G35S]	0.103
LLNSALSENPVVLQAT [BRCA2 134-149 mut P51587.S142N]	0.102

Target: T3, EIF3B_RRM__P55884_172_274
T3 chain: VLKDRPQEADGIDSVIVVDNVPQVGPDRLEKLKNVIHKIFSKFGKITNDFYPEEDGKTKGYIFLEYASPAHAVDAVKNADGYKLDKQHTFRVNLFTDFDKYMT
Assay: as above
Conditions: replicate selections in which the peptide was seen: 6

Binder	mean normalised NGS count
STGFSDEGGWLTRLLQ [SQSTM1 403-418 mut Q13501.M404T]	14.2
SMGFSDEGGWLTRLLQ [SQSTM1 403-418 wt]	48.4

Target: T4, EIF_DEAD__P60842_29_237
T4 chain: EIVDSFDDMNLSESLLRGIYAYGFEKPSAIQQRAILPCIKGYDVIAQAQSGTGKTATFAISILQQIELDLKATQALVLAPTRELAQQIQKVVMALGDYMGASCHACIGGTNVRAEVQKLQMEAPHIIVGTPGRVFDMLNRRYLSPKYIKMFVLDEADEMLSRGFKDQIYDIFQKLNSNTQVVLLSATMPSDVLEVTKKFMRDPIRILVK
Assay: as above
Conditions: replicate selections in which the peptide was seen: 4

Binder	mean normalised NGS count
WLFHTQQLLQMQPKVL [KMT2D 3513-3528 mut O14686.L3525P]	3.28

Target: T5, EPHA3_Pkinase__P29320_606_947
T5 chain: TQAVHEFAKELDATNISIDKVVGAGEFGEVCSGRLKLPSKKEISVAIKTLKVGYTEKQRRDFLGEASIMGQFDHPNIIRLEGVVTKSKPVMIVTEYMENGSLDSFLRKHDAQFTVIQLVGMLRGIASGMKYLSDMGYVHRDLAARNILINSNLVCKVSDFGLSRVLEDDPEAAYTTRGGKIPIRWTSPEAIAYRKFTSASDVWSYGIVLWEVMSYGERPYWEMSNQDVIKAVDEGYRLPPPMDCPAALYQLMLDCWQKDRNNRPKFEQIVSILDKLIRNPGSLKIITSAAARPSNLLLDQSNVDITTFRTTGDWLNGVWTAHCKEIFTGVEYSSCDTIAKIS
Assay: as above
Conditions: replicate selections in which the peptide was seen: 3

Binder	mean normalised NGS count
WVAHRTAQHLSATVAE [ZNF526 155-170 mut Q8TF50.K160T]	6.98

Target: T2, EPHB2_Pkinase__P29323_604_898
Assay: as above
Conditions: replicate selections in which the peptide was seen: 3

Binder	mean normalised NGS count
WVAHRTAQHLSATVAE [ZNF526 155-170 mut Q8TF50.K160T]	0.325

Target: T4, EIF_DEAD__P60842_29_237
Assay: as above
Conditions: replicate selections in which the peptide was seen: 2

Binder	mean normalised NGS count
ALLLPPSPRPSPRVHL [BCOR 330-345 wt]	0.119

Same assay, conditions: replicate selections in which the peptide was seen: 3

Binder	mean normalised NGS count
LSDRIYWYWPEDNVAE [TTN 2120-2135 mut Q8WZ42.R2120L]	15.2
VKIERSDRIYWYWPED [TTN 2116-2131 wt]	0.00832

Target: T6, DOK1_PTB__Q99704_151_256
T6 chain: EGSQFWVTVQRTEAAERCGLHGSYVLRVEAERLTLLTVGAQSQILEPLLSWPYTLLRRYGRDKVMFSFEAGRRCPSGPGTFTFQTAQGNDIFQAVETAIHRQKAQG
Assay: as above
Conditions: replicate selections in which the peptide was seen: 5

Binder	mean normalised NGS count
ALLGGSEIWRDIDFSH [TYR 187-202 mut P14679.A201S]	6.03
WSWVEHQDDDKVLIYS [STAT2 612-627 mut P52630.C612W]	53.3
NGWSQAYYFENPADSE [PANK2 355-370 mut Q9BZ23.R357W]	0.278
ALLGGYEIWRDIDFAH [TYR 187-202 mut P14679.S192Y]	0.34
WKVLSSSGSEAAVPSV [PLEC 976-991 wt]	0.162

Target: T4, EIF_DEAD__P60842_29_237
Assay: as above
Conditions: replicate selections in which the peptide was seen: 6

Binder	mean normalised NGS count
VKIERSDQIYWYWPED [TTN 2116-2131 mut Q8WZ42.R2123Q]	32.6

Target: T3, EIF3B_RRM__P55884_172_274
Assay: as above
Conditions: replicate selections in which the peptide was seen: 4

Binder	mean normalised NGS count
SLKDRIERRRAERAEQ [TNNT2 132-147 wt]	1.23

Target: T5, EPHA3_Pkinase__P29320_606_947
Assay: as above
Conditions: replicate selections in which the peptide was seen: 2

Binder	mean normalised NGS count
MAQMAITAAGVAVGSA [CHCHD2 56-71 mut Q9Y6H1.T61I]	0.133
ADALWWRLITLTTIGY [KCNQ2 265-280 mut O43526.G271R]	10.9

Target: EIF4E_eIF4E__P06730_1_217, P06730
Assay: as above
Conditions: replicate selections in which the peptide was seen: 6

Binder	mean normalised NGS count
PSFYDPQGPWALAWEE [NLRP12 301-316 mut P59046.H304Y]	0.376

Target: T3, EIF3B_RRM__P55884_172_274
Assay: as above
Conditions: replicate selections in which the peptide was seen: 3

Binder	mean normalised NGS count
WSLPPWLPLGLLLWSG [OSTM1 12-27 mut Q86WC4.C12W]	1.9

Target: EZR_FERM_1_P15311_2_295
Assay: as above
Conditions: replicate selections in which the peptide was seen: 5

Sequence of EZR_FERM_1_P15311_2_295 (chain, as listed by the source): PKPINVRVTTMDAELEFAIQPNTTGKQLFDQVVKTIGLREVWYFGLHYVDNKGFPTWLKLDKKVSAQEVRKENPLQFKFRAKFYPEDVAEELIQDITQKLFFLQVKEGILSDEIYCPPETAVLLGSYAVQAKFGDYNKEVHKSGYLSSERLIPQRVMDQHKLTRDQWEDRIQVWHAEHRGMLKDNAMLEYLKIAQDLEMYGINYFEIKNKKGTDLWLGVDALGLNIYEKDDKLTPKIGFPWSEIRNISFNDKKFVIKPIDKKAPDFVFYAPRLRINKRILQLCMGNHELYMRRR

Binder	mean normalised NGS count
NGWSQAYYFENPADSE [PANK2 355-370 mut Q9BZ23.R357W]	0.22

Target: T7, MSN_FERM_1_P26038_1_322
T7 chain: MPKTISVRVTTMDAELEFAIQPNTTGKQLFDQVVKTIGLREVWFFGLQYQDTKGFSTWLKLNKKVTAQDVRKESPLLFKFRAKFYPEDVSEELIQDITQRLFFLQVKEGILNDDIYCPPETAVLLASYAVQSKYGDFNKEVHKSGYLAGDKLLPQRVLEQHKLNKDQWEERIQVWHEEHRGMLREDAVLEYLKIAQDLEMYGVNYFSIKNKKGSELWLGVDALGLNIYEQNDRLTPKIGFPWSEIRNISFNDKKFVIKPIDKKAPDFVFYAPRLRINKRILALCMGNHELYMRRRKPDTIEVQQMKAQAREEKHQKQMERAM
Assay: as above
Conditions: replicate selections in which the peptide was seen: 6

Binder	mean normalised NGS count
NGWSQAYYFENPADSE [PANK2 355-370 mut Q9BZ23.R357W]	0.345

Target: T8, RDX_FERM_1_P35241_5_295
T8 chain: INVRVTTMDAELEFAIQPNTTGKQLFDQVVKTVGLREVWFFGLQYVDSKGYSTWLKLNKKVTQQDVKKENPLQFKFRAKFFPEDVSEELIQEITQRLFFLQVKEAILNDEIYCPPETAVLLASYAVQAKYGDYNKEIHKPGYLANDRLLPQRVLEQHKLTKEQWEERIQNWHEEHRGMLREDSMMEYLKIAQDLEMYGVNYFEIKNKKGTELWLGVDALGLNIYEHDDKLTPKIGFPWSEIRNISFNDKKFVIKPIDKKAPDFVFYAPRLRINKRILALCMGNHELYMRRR
Assay: as above
Conditions: replicate selections in which the peptide was seen: 4

Binder	mean normalised NGS count
NGWSQAYYFENPADSE [PANK2 355-370 mut Q9BZ23.R357W]	0.175
